Laboratory results published in PubChem BioAssay AID1634 (National Center for Advancing Translational Sciences (NCATS), 2009).
In all, about 260,000 compounds went through this assay and about 150 (0.058%) were called active. The inconclusive results got no clear call from the source; some entries with a clear call stand among them for comparison. The call rests on the fitted dose curve; in most records, active means well fitted inhibition curve with a large enough effect; inconclusive means small, poorly fitted or top-dose-only effect; inactive means no such curve, though single readings can be large or run the other way. Potencies of inconclusive entries are left out as doubtful fits.

Target: Pyruvate kinase PKM (Homo sapiens) (UniProt P14618)
Test: qHTS Assay for Inhibitors of Human Muscle isoform 2 Pyruvate Kinase; further: nearly all actives have a fitted effect of over 60% in size;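 on activity change, negative = inhibition: plate controls were uninhibited enzyme wells for no effect and no-enzyme wells for full effect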
Settings: purified PKM2, ATP generation, Kinase-Glo luminescence; series mostly up to 57.5 µM; activity change, negative = inhibition: at the top concentration
Procedure, shortened: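 Coupled luciferase luminescence (Kinase-Glo) detects ATP generated from 0.1 mM ADP and 0.5 mM PEP in imidazole buffer pH 7.2 with KCl, MgCl2; 1 h at room temperature. Enzyme at intermediate activity; normalized to uninhibited and no-enzyme controls.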
Potency means the concentration at half of the fitted maximal effect; tags describe the fitted curve by direction and shape.

Sequence of UniProt P14618 (P14618 whole entry, looked up, canonical isoform): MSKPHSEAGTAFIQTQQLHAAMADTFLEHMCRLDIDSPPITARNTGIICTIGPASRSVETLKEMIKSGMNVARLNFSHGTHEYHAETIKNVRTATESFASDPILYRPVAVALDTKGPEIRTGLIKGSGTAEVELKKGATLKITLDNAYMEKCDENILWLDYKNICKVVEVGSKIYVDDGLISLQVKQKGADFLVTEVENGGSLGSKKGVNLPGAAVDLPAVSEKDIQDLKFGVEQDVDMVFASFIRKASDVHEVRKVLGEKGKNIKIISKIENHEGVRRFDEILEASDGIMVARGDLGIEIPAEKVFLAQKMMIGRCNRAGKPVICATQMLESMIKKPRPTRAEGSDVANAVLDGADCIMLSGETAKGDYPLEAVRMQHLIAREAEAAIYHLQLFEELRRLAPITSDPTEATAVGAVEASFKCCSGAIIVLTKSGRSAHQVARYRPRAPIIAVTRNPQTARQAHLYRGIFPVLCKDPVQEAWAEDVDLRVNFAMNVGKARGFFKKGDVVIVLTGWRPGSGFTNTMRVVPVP

Which Potency does the source give for `COC(=O)/N=C(/Cc1ccc(OC)cc1)c1ccc(OC)cc1` here?
The Potency was inconclusive [falling, partial curve].

Which Potency does the source give for `C=CCNC(=O)CN1CCC(NC(=O)c2ccco2)CC1` here?
Its Potency is inconclusive [falling, single point].

`COc1ccccc1NC(=O)c1ccc(C(=O)c2ccccc2)o1` was tested. Which Potency did it give?
The Potency was inconclusive [falling, single point].

`Cc1cc(NC(=O)CSc2nccn2C)no1` was tested. Which Potency did it give?
Its Potency is inconclusive [falling, single point].

How did the “activity change, negative = inhibition” value turn out when `CCCc1[nH]nc2c1C(c1ccc(OC)c(CSC3=NCCS3)c1)C(C#N)=C(N)O2` (centres undefined) was run?
Its value is inactive: 32%.

`Cc1cccc(C(=O)NC(=O)Nc2c(C)cc(C)nc2C)c1` was tested. Which Potency did it give?
The Potency was inconclusive [falling, single point].

Which “activity change, negative = inhibition” value does the source give for `COc1cccc(C(=O)NNS(=O)(=O)c2ccc(F)cc2)c1` here?
The value was inactive: 18%.

`Cc1nn(-c2cccc(Cl)c2)nc1C(=O)O` was tested. Which Potency did it give?
The Potency was inconclusive [falling, single point].

How did the “activity change, negative = inhibition” value turn out when `N#Cc1c(-c2cccs2)nc(SCc2ccc(Cl)cc2)[nH]c1=O` was run?
The value was inactive: 74.6%.

How did the “activity change, negative = inhibition” value turn out when `COc1cccc(NC(=O)CN(C)CC(=O)Nc2ccc(Cl)cc2[N+](=O)[O-])c1` was run?
Its value is inactive: 76.2%.

With `O=C(COc1ccccc1C(=O)Nc1ccccc1)c1ccc(F)cc1` as the compound, how does the Potency read?
The Potency was inconclusive [falling, single point].

Which Potency does the source give for `COc1ccc(C(=O)Nc2ccccc2C(=O)N/N=C/c2ccncc2)cc1OC` here?
Its Potency is inconclusive [falling, partial curve].

For `CCN(CC)C(=O)c1ccc(Nc2nnc(C)c3ccccc23)cc1`, which Potency is on record?
Its Potency is inconclusive [falling, single point].

Which Potency does the source give for `O=C(Cn1ccc([N+](=O)[O-])n1)NCc1cccnc1` here?
The Potency was inconclusive [falling, single point].

Which “activity change, negative = inhibition” value does the source give for `CC(C)(C)NC(=O)C(c1ccncc1)N(Cc1ccc(F)cc1)C(=O)c1ccc(-c2ccccc2)[nH]1` (centres undefined) here?
The value was inactive: 63.3%.

Which “activity change, negative = inhibition” value does the source give for `CCn1c(SCC(=O)Nc2cccc(C)c2)nc2nc3c(cc2c1=O)COC(C)(C)C3` here?
The value was inactive: 66.7%.

With `COc1ccc(C(=O)Nc2nc(C)c3cc4c(cc3n2)OCO4)cc1` as the compound, how does the Potency read?
Its Potency is inconclusive [falling, single point].

How did the “activity change, negative = inhibition” value turn out when `O=C(NCc1ccc2c(c1)OCO2)c1ccc(C2SCC(=O)N2Cc2ccco2)cc1` (centres undefined) was run?
The value was inactive: 54.3%.

How did the “activity change, negative = inhibition” value turn out when `O=C1CC(c2ccc(OCCCCCOc3ccc(C4CC(=O)NC4=O)cc3)cc2)C(=O)N1` (centres undefined) was run?
Its value is inactive: 120%.

`O=C(Nc1ccccc1)Nc1ccc(C(=O)N2CCCC2)cc1` was tested. Which Potency did it give?
The Potency was inconclusive [falling, partial curve].

Which Potency does the source give for `CS(=O)(=O)NCCNc1cc(Cl)ccc1[N+](=O)[O-]` here?
Its Potency is inconclusive [falling, single point].

For `N#C/C(=C\c1ccccc1)c1ccccn1`, which Potency is on record?
Its Potency is inconclusive [falling, single point].

Which Potency does the source give for `C/C(=N\NC(=O)CC(C)C)c1c(C(F)(F)F)[nH]n(-c2nc3ccccc3s2)c1=O` here?
The Potency was inconclusive [falling, single point].

`CN1CCN(c2ccc(S(=O)(=O)Nc3ccccc3)cc2[N+](=O)[O-])CC1` was tested. Which “activity change, negative = inhibition” value did it give?
The value was inactive: 30.1%.

For `N#C/C(=C\c1ccc(F)c(Cl)c1)S(=O)(=O)c1ccccn1`, which “activity change, negative = inhibition” value is on record?
The value was inactive: -3.41%.

Which Potency does the source give for `Cc1ccccc1-c1n[nH]c(=S)n1C` here?
The Potency was inconclusive [falling, single point].

How did the Potency turn out when `Cc1ccccc1NC(C)C(=O)N/N=C/c1c[nH]c2ccccc12` (centres undefined) was run?
Its Potency is inconclusive [falling, single point].

How did the “activity change, negative = inhibition” value turn out when `COc1ccc(S(=O)(=O)N(C)c2ccc(C(=O)NCc3ccco3)cc2)cc1` was run?
The value was inactive: 60.1%.

For `O=C(O)c1cc(Cl)c2ccccc2c1O`, which Potency is on record?
The Potency was inconclusive [falling, single point].

With `CCCCn1c(N)c(Sc2ccc(Cl)cc2)c(=O)[nH]c1=O` as the compound, how does the “activity change, negative = inhibition” value read?
The value was inactive: 30.1%.

How did the Potency turn out when `Cc1c(C=C2C(=O)c3ccccc3C2=O)cc(C#N)n1C` was run?
Its Potency is inconclusive [falling, single point].

How did the Potency turn out when `CCN(CC)CCCN(Cc1cc2cc3c(cc2[nH]c1=O)OCCO3)C(=O)Nc1ccccc1` was run?
The Potency was inconclusive [falling, single point].

For `CN(C)c1nc(N)c2ncc(=S)[nH]c2n1`, which Potency is on record?
The Potency was inconclusive [falling, single point].

With `O=c1cc(O)nc(SCc2ccccc2)[nH]1` as the compound, how does the Potency read?
Its Potency is inconclusive [falling, single point].

How did the Potency turn out when `COc1ccc(OCC(=O)Nc2ccc(N3CCN(C(=O)c4ccccc4C)CC3)cc2)cc1` was run?
The Potency was inconclusive [falling, single point].

`Cc1ccccc1Nc1nc(-c2sc(NC(=O)c3ccco3)nc2C)cs1` was tested. Which Potency did it give?
Its Potency is inconclusive [falling, partial curve].

How did the Potency turn out when `O=C1C(=Cc2ccc(Br)o2)C(=O)c2ccccc21` was run?
The Potency was inconclusive [falling, partial curve].

For `Cc1cc(=O)[nH]c(N/N=C/c2cn(CCC#N)nc2-c2ccccc2)n1`, which Potency is on record?
The Potency was inconclusive [falling, single point].

Which Potency does the source give for `Oc1ccc(/C=N/Nc2nccnc2Cl)c(O)c1` here?
The Potency was inconclusive [falling, partial curve].

For `CCCCn1c2c(c(=N)c3ccccc31)CCC2`, which Potency is on record?
The Potency was inconclusive [falling, single point].

For `CNCc1ccccc1OCc1ccc(F)cc1`, which Potency is on record?
The Potency was inconclusive [falling, single point].

Which Potency does the source give for `O=C(c1ccccc1)c1nnc(-c2ccncc2)o1` here?
The Potency was inconclusive [falling, partial curve].

For `Cn1c(CN2CCCCC2)nc2cc(NS(=O)(=O)c3ccc(F)cc3)ccc21`, which Potency is on record?
Its Potency is inconclusive [falling, single point].

How did the Potency turn out when `Cc1ccc(OCC(=O)Nc2nnc(S(=O)(=O)N3CCCCCC3)s2)cc1C` was run?
Its Potency is inconclusive [falling, single point].

For `CCc1nc2ccccc2n1Cc1cc(=O)n2cc(C)ccc2n1`, which “activity change, negative = inhibition” value is on record?
The value was inactive: 73.4%.

Which Potency does the source give for `N/C(=N\OC(=O)c1cccc(Br)c1)c1ccccn1` here?
Its Potency is inconclusive [falling, partial curve].

With `COc1ccc(NC(=O)N2CCc3ccccc32)cc1` as the compound, how does the Potency read?
Its Potency is inconclusive [falling, partial curve].

`CCOc1ccc(N=Nc2c(=O)[nH]n3c(=O)cc(C)[nH]c23)cc1` was tested. Which Potency did it give?
The Potency was inconclusive [falling, partial curve].

`COc1ccc(NC(=O)CC2C(=O)N(c3cccc(OC)c3)C(=O)N2C(C)C)cc1` (centres undefined) was tested. Which Potency did it give?
The Potency was inconclusive [falling, partial curve, poor fit].

For `Cc1ccc(NC(=O)N2CCc3ccccc32)cc1C`, which Potency is on record?
The Potency was inconclusive [falling, single point].

How did the Potency turn out when `O=C(O)C1CSC(c2ccc(O)c([N+](=O)[O-])c2)N1` (centres undefined) was run?
The Potency was inconclusive [falling, single point].

For `COc1ccnc(Oc2ccccc2)c1C(=O)N/C=N/OCc1ccccc1`, which Potency is on record?
Its Potency is inconclusive [falling, single point].

How did the “activity change, negative = inhibition” value turn out when `COc1ccc(C(=O)Nc2ncc3c(n2)CC(c2ccco2)CC3=O)cc1` (centres undefined) was run?
The value was inactive: 37.9%.

With `Cc1cc(C)c(S(=O)(=O)N2C=CC(C(F)(F)F)=NCC2)c(C)c1` as the compound, how does the “activity change, negative = inhibition” value read?
Its value is inactive: 41.1%.

With `CCN(CC)c1ccc2cc(S(=O)(=O)c3ccc(C)cc3)c(=O)oc2c1` as the compound, how does the “activity change, negative = inhibition” value read?
The value was inactive: 35.5%.

For `COc1cccc(OCCn2cc(C(C)=O)c3ccccc32)c1`, which “activity change, negative = inhibition” value is on record?
Its value is inactive: 36.7%.

How did the Potency turn out when `Cc1n[nH]c(=O)nc1N/N=C/c1ccco1` was run?
Its Potency is inconclusive [falling, single point].

With `CCOc1cc(/C=N/NC(=O)c2cc(C3CC3)[nH]n2)ccc1O` as the compound, how does the Potency read?
Its Potency is inconclusive [falling, single point].

With `Cc1ccc(/C=C2/SC(=S)N(c3ccc(S(=O)(=O)Nc4nccs4)cc3)C2=O)cc1` as the compound, how does the “activity change, negative = inhibition” value read?
The value was inactive: 67.4%.

For `CC1CN(C(=O)c2ccc(COc3ccccc3Br)o2)CC(C)O1` (centres undefined), which “activity change, negative = inhibition” value is on record?
Its value is inactive: 43.8%.

`CC(NC(=O)Cn1nnc(-c2ccncc2)n1)c1ccccc1` (centres undefined) was tested. Which “activity change, negative = inhibition” value did it give?
Its value is inactive: -4.01%.

Which Potency does the source give for `Nc1cc(C(F)(F)F)ccc1-n1cccc1` here?
The Potency was inconclusive [falling, single point].

`CN1c2ccccc2C(=O)NC1c1ccc([N+](=O)[O-])s1` (centres undefined) was tested. Which “activity change, negative = inhibition” value did it give?
Its value is inactive: -1.07%.

With `COC(=O)c1nc(N)sc1-c1ccc(OC)cc1` as the compound, how does the “activity change, negative = inhibition” value read?
The value was inactive: 39.7%.

For `O=C(C(=O)N1CCCc2ccccc21)c1c[nH]c2ccccc12`, which “activity change, negative = inhibition” value is on record?
The value was inactive: 71.6%.

How did the Potency turn out when `CCc1nnc(NC(=O)c2ccc(Cl)nc2)s1` was run?
The Potency was inconclusive [falling, single point].

`C[c-]1[c-](C)[c-](C)[c-](C)[c-]1C.[Fe].c1cc2nccc(N3CCCC3)[c-]2c1` (centres undefined) was tested. Which “activity change, negative = inhibition” value did it give?
The value was inactive: 31.9%.

Which Potency does the source give for `COc1ccc(NC(=O)c2ccc(Br)o2)cc1` here?
Its Potency is inconclusive [falling, single point].

For `CCOC(=O)c1c(NC(=O)CSc2nc3cc(Cl)ccc3c(=O)n2Cc2ccco2)sc(C(=O)N(C)C)c1C`, which “activity change, negative = inhibition” value is on record?
The value was inactive: 45.9%.

`COc1ccc(CNC(=O)C2CCC(CNc3nc(=S)[nH]c4ccccc34)CC2)cc1` (centres undefined) was tested. Which Potency did it give?
Its Potency is inconclusive [falling, single point].

`Cc1ccc(-c2csc(NC(=O)COC(=O)c3cccc(S(=O)(=O)N4CCOCC4)c3)n2)cc1` was tested. Which Potency did it give?
Its Potency is inconclusive [falling, single point].

With `O=C(O)c1c(N2CCCCC2)ccc([N+](=O)[O-])c1N1CCCCC1` as the compound, how does the Potency read?
Its Potency is inconclusive [falling, single point].

Which Potency does the source give for `c1ccc(-c2ccccc2OCCCN2CCCCCC2)cc1` here?
The Potency was inconclusive [falling, single point].

Which Potency does the source give for `COc1cc2ccccc2cc1C(=O)OCC(=O)NC1CCS(=O)(=O)C1` (centres undefined) here?
The Potency was inconclusive [falling, single point].
